Assay results: PubChem BioAssay AID1508624 (National Center for Advancing Translational Sciences (NCATS), 2021)
The campaign covered roughly 48,000 compounds. About 120 (0.25%) were called active. Another 4% or so got no clear call; they are omitted. Calls follow the shape of the dose curve; as a rule, active = well fitted activation curve with a large enough effect; inconclusive = small, poorly fitted or top-dose-only effect, or another doubt; inactive = no such curve, though single readings can be large or run the other way. The list shows a part of the results.

Experiment: Primary qHTS for Identification of Small Molecule Activators of Huntingtin-Antisense Promoter Activity; also: nearly all actives have a fitted effect of over 55% in size
Details: HEK293 HTT-AS promoter firefly luciferase reporter, 24 h; series mostly up to 57.5 µM; activity change, positive = activation: at the top concentration
Summary of the method: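 Firefly luciferase readout (Dual-Glo, 10 min RT) after 24 h, 37 °C compound exposure (final up to 57.5 uM) of HEK293 reporter cells cultured 24 h beforehand; PTC124 at 50 uM final as control inhibitor; activity scaled vehicle 0%, zero RLU -100%.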
For `COc1cc(NC(=O)NCC2CCN(Cc3ccc(C)cc3)CC2)cc(OC)c1OC`, the “activity change, positive = activation” value was inactive: -13.2%.
In the case of `Cc1ccc(C(=O)Nc2nnc(S(=O)(=O)N3CCN(c4ccc(F)cc4)CC3)s2)cc1`, the “activity change, positive = activation” value is reported as inactive: 4.14%.
In the case of `Cc1ccc(CN2CCCn3nc(C(=O)NCc4cc(C)ccc4C)cc3C2=O)cc1`, the “activity change, positive = activation” value is reported as inactive: -20.7%.
With `C[N+](C)(C)CC(O)CC(=O)[O-]` (configuration not stated) the “activity change, positive = activation” value was inactive: -13%.
In the case of `Cc1ccc(CNC(=O)c2cnc3c(-c4ccccc4)c(C)nn3c2C)o1`, the “activity change, positive = activation” value is reported as inactive: 6.56%.
In the case of `COCCCNC(=O)c1cnn(-c2ccc(F)cc2F)c1C1CCNCC1`, the “activity change, positive = activation” value is reported as inactive: -18.9%.
In the case of `O=C(Cn1c(=O)oc2cc(S(=O)(=O)NCc3ccccc3)ccc21)NCc1ccccc1Cl`, the “activity change, positive = activation” value is reported as inactive: -34.6%.
With `COc1ccc(NC(=O)CC2C(=O)N(c3ccc(F)cc3)C(=O)N2CCc2sccc2C)cc1` (configuration not stated) the “activity change, positive = activation” value was inactive: -46.6%.
In the case of `CCOC(=O)c1cc(-c2ccccc2)n(CCC(=O)Nc2cc(C)cc(C)c2)c1C`, the “activity change, positive = activation” value is reported as inactive: -32.1%.
In the case of `CN(Cc1ccccc1)C(=O)C1CCC(CNS(=O)(=O)c2ccc3c(c2)CCCC(=O)N3)CC1` (configuration not stated), the “activity change, positive = activation” value is reported as inactive: -27.2%.
For `CC(C)C(=O)Nc1ncc(-c2cc(C(F)F)nn2-c2c(Cl)cccc2Cl)s1`, the “activity change, positive = activation” value was inactive: -37.8%.
With `COc1cc([C@H]2Oc3cc([C@H]4Oc5cc(O)cc(O)c5C(=O)[C@@H]4O)ccc3O[C@@H]2CO)ccc1O` the “activity change, positive = activation” value was inactive: -16.3%.
With `Cc1ccc(N2CCN(C(=O)C3CCN(c4ncnc5c4nc4n5CCCCC4)CC3)CC2)c(C)c1` the “activity change, positive = activation” value was inactive: -14.7%.
With `Cc1ccc2nc(NC(=O)c3nc(SCc4ccccc4C)ncc3Cl)sc2c1` the “activity change, positive = activation” value was inactive: -12.9%.
With `N#C/C(=C1/SC[C@@H](c2ccc(Cl)cc2Cl)S1)n1ccnc1` the “activity change, positive = activation” value was inactive: -50.8%.
In the case of `CCOC(=O)C(=O)Nc1nnc2n1CCS2`, the “activity change, positive = activation” value is reported as inactive: -13.8%.
In the case of `COc1ccc(NC(=O)Cn2c(=O)n(Cc3ccccc3)c(=O)c3oc4ccccc4c32)cc1Cl`, the “activity change, positive = activation” value is reported as inactive: 6.97%.
In the case of `Cc1nc2c(C(=O)NCc3ccccc3Cl)cnn2c(C)c1Cc1ccccc1`, the “activity change, positive = activation” value is reported as inactive: -9.74%.
For `Cc1ccc(C)c(-n2cc(-c3ccccc3)nc2SCC(=O)Nc2ccccc2)c1`, the “activity change, positive = activation” value was inactive: -24.7%.
With `Cc1nc(N2CCCC2)ncc1C(=O)N1CCN(c2ccc(Cl)cc2)CC1` the “activity change, positive = activation” value was inactive: -16.9%.
For `Cn1cc(S(=O)(=O)N2CCCCC2)cc1C(=O)N1CCN(c2ccccc2F)CC1`, the “activity change, positive = activation” value was inactive: -21.2%.
For `Cc1nc2n(c(=O)c1CCN1CCC(c3noc4cc(F)ccc34)CC1)CCC[C@H]2O`, the “activity change, positive = activation” value was inactive: -1.23% [at 25.1 µM, percent change from vehicle, -100% = no light].
With `O=C(CSc1nc2c([nH]c3ccccc32)c(=O)n1-c1ccc(Cl)cc1)N1CCCCCC1` the “activity change, positive = activation” value was inactive: -14.2%.
In the case of `COc1cccc(-c2csc(-c3c(N)c(C(=O)c4ccccc4)n4ccccc34)n2)c1`, the “activity change, positive = activation” value is reported as inactive: 10.3%.
For `CCOC(=O)c1ccccc1NC(=O)Cn1c(=O)n(CCCC(=O)NCc2ccc3c(c2)OCO3)c(=O)c2ccccc21`, the “activity change, positive = activation” value was inactive: -10%.
In the case of `CCCCOc1cc(C(=O)OCCN(CC)CC)ccc1N`, the “activity change, positive = activation” value is reported as inactive: -2.21%.
For `CCc1cccc(NC(=O)CSc2ncc3c(n2)-c2ccccc2N(CC)S3(=O)=O)c1`, the “activity change, positive = activation” value was inactive: -40%.
With `COc1ccc(NC(=O)C(C)n2nc(-c3cc(C)ccc3C)c3c(c2=O)CCCC3)cc1` (configuration not stated) the “activity change, positive = activation” value was inactive: -36.5%.
In the case of `O=C(NCCc1ccccc1)C(=O)NCC(c1ccco1)S(=O)(=O)c1ccccc1` (configuration not stated), the “activity change, positive = activation” value is reported as inactive: -14.7%.
With `COCCCNC(=O)CCC(=O)NNc1nc2ccccc2c2nc(-c3ccccc3)nn12` the “activity change, positive = activation” value was inactive: -6.76%.
With `COCCNC(=O)CSc1nc2cc3c(cc2c(=O)n1Cc1ccc(C(=O)NCCc2ccc(OC)c(OC)c2)cc1)OCO3` the “activity change, positive = activation” value was inactive: -3.21%.
With `CCOc1ccc(NC(=O)CSc2nnc(-c3ccncc3)n2-c2ccccc2)cc1` the “activity change, positive = activation” value was inactive: 1.88%.
For `Nc1c[n+](N2CCOCC2)no1`, the “activity change, positive = activation” value was inactive: -3.15%.
In the case of `COc1ccc(CNC(=O)c2ccc(CSc3nc4ccncc4n3Cc3ccccc3F)cc2)cc1`, the “activity change, positive = activation” value is reported as inactive: -6.44%.
In the case of `Cc1cc(Nc2cc(N3CCN(C)CC3)nc(Sc3ccc(NC(=O)C4CC4)cc3)n2)n[nH]1`, the “activity change, positive = activation” value is reported as inactive: -15.8%.
With `CN1CCN(CCCNC(=O)Cn2c(-c3cccs3)cc3cc(Cl)ccc32)CC1` the “activity change, positive = activation” value was inactive: -24.4%.
In the case of `Cc1ccc(CN2COc3cc(C)c4c(oc(=O)c5ccccc54)c3C2)cc1`, the “activity change, positive = activation” value is reported as inactive: -2.55%.
With `CCOc1ccc(NC(=O)c2cnn(-c3ccc(C)c(Cl)c3)c2C2CCNCC2)cc1` the “activity change, positive = activation” value was inactive: -16.1%.
With `COc1cc(OC)c(NC(=O)C(NS(=O)(=O)c2cccc3nsnc23)c2ccccc2)cc1Cl` (configuration not stated) the “activity change, positive = activation” value was inactive: -11.9%.
In the case of `COC(=O)C1=CO[C@@H](O)[C@@H]2C(CO)=CC[C@@H]12`, the “activity change, positive = activation” value is reported as inactive: -0.98%.
For `CCOc1cc(C2NC(=O)c3c(sc4c3CCN(C)C4)N2)ccc1OC(=O)c1ccccc1Cl` (configuration not stated), the “activity change, positive = activation” value was inactive: -35.1%.
In the case of `COc1ccc(-c2[nH]c(-c3ccccc3)nc2SCC(=O)Nc2ccc3c(c2)OCCO3)cc1`, the “activity change, positive = activation” value is reported as inactive: -19.1%.
In the case of `CN1CCN(N)CC1`, the “activity change, positive = activation” value is reported as inactive: -4%.
For `CCc1ccc(-c2nc(CN3CCCC(C(=O)NCc4ccc(C)cc4)C3)c(C)o2)cc1` (configuration not stated), the “activity change, positive = activation” value was inactive: -5.12%.
With `COc1ccc(-c2cc3nc(C)c(CCC(=O)Nc4cccc(C(F)(F)F)c4)c(C)n3n2)c(OC)c1` the “activity change, positive = activation” value was inactive: -21%.
In the case of `CCn1cc2nc(SCC(=O)Nc3ccccc3F)n(Cc3ccc(C)cc3)c(=O)c2n1`, the “activity change, positive = activation” value is reported as inactive: -31.8%.
With `Cc1ccc(CNC(=O)Nc2cn(CC(C)C)c(=O)c3ccccc23)cc1` the “activity change, positive = activation” value was inactive: -19.6%.
